Screen size: about 3,200 compounds; about 110 (3.4%) showed an effect of 50% or more. This is one part of the list.
Tested on: T1, V. cholerae SAD30
T1 construct: SAD30
Parameters: species or system S. aureus MSSA476 (TSB) or V. cholerae SAD30 (LB); 384-well bacterial growth screen at 25 uM, OD600 relative to DMSO control
Conditions: relative growth, OD600, LB; 25 µM; inhibitor

SMILES | % of control remaining [%]
C=CC(=O)NCCC(=O)N1CCC(O)(c2c(F)cccc2F)CC1 [2-B11, N-{3-[4-(2,6-difluorophenyl)-4-hydroxypiperidin-1-yl]-3-oxopropyl}prop-2-enamide] | 94.519
Cc1c(C#N)c(NC(=O)CCl)n(Cc2cccs2)c1C [4-C04, 2-chloro-N-{3-cyano-4,5-dimethyl-1-[(thiophen-2-yl)methyl]-1H-pyrrol-2-yl}acetamide] | 112.487
CCc1nc(C2CCCN2C(=O)CCl)no1 (stereo not drawn) [5-C08, 2-chloro-1-[2-(5-ethyl-1,2,4-oxadiazol-3-yl)pyrrolidin-1-yl]ethan-1-one] | 101.04
CCn1nc(C)c(CNC(=O)CCl)c1C [7-P10, 2-chloro-N-[(1-ethyl-3,5-dimethyl-1H-pyrazol-4-yl)methyl]acetamide] | 85.1148
Cl.O=C(CCl)NCc1ccccc1CN1CCOCC1 [5-L06, 2-chloro-N-({2-[(morpholin-4-yl)methyl]phenyl}methyl)acetamide hydrochloride] | 100.704
N#CC(=Cc1cccc2ccccc12)C(=O)Nc1ccccc1Cl [8-K11, N-(2-chlorophenyl)-2-cyano-3-(naphthalen-1-yl)prop-2-enamide] | 71.9918
Cc1cc(NC(=O)CCl)n(-c2ccccc2)n1 [4-G05, 2-chloro-N-(3-methyl-1-phenyl-1H-pyrazol-5-yl)acetamide] | 102.825
CN1C(=C(C#N)C(=O)CCl)Sc2ccccc21 [10-G08, 4-chloro-2-(3-methyl-2,3-dihydro-1,3-benzothiazol-2-ylidene)-3-oxobutanenitrile] | 91.954
O=C(CCl)Nc1ccc(C(=O)O)cc1[N+](=O)[O-] [4-C21, 4-(2-chloroacetamido)-3-nitrobenzoic acid] | 106.103
COCCNC(=O)C(C#N)=Cc1cccc2ccccc12 [8-L12, 2-cyano-N-(2-methoxyethyl)-3-(naphthalen-1-yl)prop-2-enamide] | 67.913
C=CC(=O)N1CCOC(c2ccccc2)C1 (stereo not drawn) [2-I07, 1-(2-phenylmorpholin-4-yl)prop-2-en-1-one] | 92.203
CC(Cl)C(=O)N(Cc1ccco1)C1CCN(C)CC1 (stereo not drawn) [7-L17, 2-chloro-N-[(furan-2-yl)methyl]-N-(1-methylpiperidin-4-yl)propanamide] | 81.0177
Cc1c(NC(=O)CCl)c(=O)n(-c2ccccc2)n1C [5-G17, 2-chloro-N-(1,5-dimethyl-3-oxo-2-phenyl-2,3-dihydro-1H-pyrazol-4-yl)acetamide] | 99.8634
C=CC(=O)NC1(c2nc(C)no2)CC1 [3-L09, N-[1-(3-methyl-1,2,4-oxadiazol-5-yl)cyclopropyl]prop-2-enamide] | 92.2661
C=CC(=O)Nc1ccc2ccn(CCN(C)C)c2c1 [1-L21, N-{1-[2-(dimethylamino)ethyl]-1H-indol-6-yl}prop-2-enamide] | 90.583
C=CC(=O)N1CCOC(Cn2nc(C)nc2C)C1 (stereo not drawn) [1-B09, 1-{2-[(3,5-dimethyl-1H-1,2,4-triazol-1-yl)methyl]morpholin-4-yl}prop-2-en-1-one] | 86.2481
CC(Cl)C(=O)Nc1ccc(Cc2nnc3ncccn23)cc1 (stereo not drawn) [7-O22, 2-chloro-N-[4-({[1,2,4]triazolo[4,3-a]pyrimidin-3-yl}methyl)phenyl]propanamide] | 91.0623
Cc1ccccc1NC(=O)C(C#N)=Cc1cc(C)n(C2CC2)c1C [8-A16, 2-cyano-3-(1-cyclopropyl-2,5-dimethyl-1H-pyrrol-3-yl)-N-(2-methylphenyl)prop-2-enamide] | 55.4045
C=CC(=O)NC(C)C1(S(C)(=O)=O)CC1 (stereo not drawn) [2-P05, N-[1-(1-methanesulfonylcyclopropyl)ethyl]prop-2-enamide] | 100.232
C=CC(=O)N1CCC(C(=O)Nc2ccc(CC)cc2)CC1 [3-J12, N-(4-ethylphenyl)-1-(prop-2-enoyl)piperidine-4-carboxamide] | 87.3259
CC(Cl)C(=O)N1CCC(NS(=O)(=O)c2cccs2)CC1 (stereo not drawn) [7-L07, N-[1-(2-chloropropanoyl)piperidin-4-yl]thiophene-2-sulfonamide] | 81.1498
C=CC(=O)N1CCOC(c2cnn(C)c2)C1 (stereo not drawn) [3-K11, 1-[2-(1-methyl-1H-pyrazol-4-yl)morpholin-4-yl]prop-2-en-1-one] | 91.3839
Cc1ccc(C=C(C#N)C(=O)Nc2nccs2)o1 [9-P10, 2-cyano-3-(5-methylfuran-2-yl)-N-(1,3-thiazol-2-yl)prop-2-enamide] | 82.053

SMILES | % of control remaining [%]
Cc1ccc(F)c(S(=O)(=O)NCCNC(=O)CCl)c1 [7-P12, 2-chloro-N-[2-(2-fluoro-5-methylbenzenesulfonamido)ethyl]acetamide] | 58.8138
C=CC(=O)NC1CCS(=O)(=O)c2ccc(F)cc21 (stereo not drawn) [2-J19, N-(6-fluoro-1,1-dioxo-3,4-dihydro-2H-1lambda6-benzothiopyran-4-yl)prop-2-enamide] | 93.5926
C=CC(=O)NCCNS(=O)(=O)c1cc(C)sc1C [3-C21, N-[2-(2,5-dimethylthiophene-3-sulfonamido)ethyl]prop-2-enamide] | 110.969
Cc1cccc(NC(=O)c2ccccc2NC(=O)CCl)c1 [4-C10, 2-(2-chloroacetamido)-N-(3-methylphenyl)benzamide] | 97.3043
N#CC(=Cc1ccc(OC(F)F)cc1)C(=O)Nc1ccccc1 [9-G15, 2-cyano-3-[4-(difluoromethoxy)phenyl]-N-phenylprop-2-enamide] | 88.9871
Cc1cc(C(=O)CCl)c(C)n1-c1ccc(C(F)(F)F)cc1 [10-J14, 2-chloro-1-{2,5-dimethyl-1-[4-(trifluoromethyl)phenyl]-1H-pyrrol-3-yl}ethan-1-one] | 98.4999
N#CC(=Cc1c(F)c(F)c(F)c(F)c1F)C(=O)NC1CCCCC1 [8-O15, 2-cyano-N-cyclohexyl-3-(2,3,4,5,6-pentafluorophenyl)prop-2-enamide] | 75.6628
Cc1cc(Cl)ccc1CN1CCN(C(=O)C(C)Cl)CC1 (stereo not drawn) [5-B13, 2-chloro-1-{4-[(4-chloro-2-methylphenyl)methyl]piperazin-1-yl}propan-1-one] | 62.2045
C=CC(=O)N(Cc1nccc2c1CCCC2)C1CCCC(OC)C1 (stereo not drawn) [1-F11, N-(3-methoxycyclohexyl)-N-[(5,6,7,8-tetrahydroisoquinolin-1-yl)methyl]prop-2-enamide] | 81.3154
C=CC(=O)N1CCC(CCO)c2ccccc21 (stereo not drawn) [3-O03, 1-[4-(2-hydroxyethyl)-1,2,3,4-tetrahydroquinolin-1-yl]prop-2-en-1-one] | 111.145
N#CC(=Cc1ccc(C(F)(F)F)cc1)C(=O)Nc1ccccc1 [9-I04, 2-cyano-N-phenyl-3-[4-(trifluoromethyl)phenyl]prop-2-enamide] | 86.4038
CC(Cl)C(=O)Nc1ccccc1OC(F)F (stereo not drawn) [6-J08, 2-chloro-N-[2-(difluoromethoxy)phenyl]propanamide] | 85.392
C=CC(=O)Nc1ccc(C)cc1S(=O)(=O)N1CCOCC1 [1-O13, N-[4-methyl-2-(morpholine-4-sulfonyl)phenyl]prop-2-enamide] | 87.2945
CC(Cl)C(=O)Nc1ccc(Cl)c(S(=O)(=O)N(C)C)c1 (stereo not drawn) [5-G21, 2-chloro-N-[4-chloro-3-(dimethylsulfamoyl)phenyl]propanamide] | 96.6691
COc1ccc(CNC(=O)C(C)Cl)cc1OC (stereo not drawn) [6-P10, 2-chloro-N-[(3,4-dimethoxyphenyl)methyl]propanamide] | 100.104
COc1ccc(CN(C)C(=O)CCl)cc1 [6-M15, 2-chloro-N-[(4-methoxyphenyl)methyl]-N-methylacetamide] | 90.0938
C=CC(=O)Nc1sc2c(c1C(=O)c1ccc(C)cc1)CCOC2 [1-J22, N-[3-(4-methylbenzoyl)-4H,5H,7H-thieno[2,3-c]pyran-2-yl]prop-2-enamide] | 129.539
O=C(CCl)Nc1ccccc1C(=O)Nc1ccc(Cl)cc1 [4-G10, 2-(2-chloroacetamido)-N-(4-chlorophenyl)benzamide] | 90.0582
Cc1cc(C(=O)CCl)c(C)n1Cc1cccs1 [10-D03, 2-chloro-1-{2,5-dimethyl-1-[(thiophen-2-yl)methyl]-1H-pyrrol-3-yl}ethan-1-one] | 108.319
CN1C(=O)Cc2cc(C(=O)CCl)ccc21 [10-G07, 5-(2-chloroacetyl)-1-methyl-2,3-dihydro-1H-indol-2-one] | 54.3931
N#CC(=Cc1ccc(Cl)cc1)C(=O)Nc1ccccn1 [9-H16, 3-(4-chlorophenyl)-2-cyano-N-(pyridin-2-yl)prop-2-enamide] | 87.3555
C=CC(=O)NCc1nc(-c2ccccc2)oc1C [3-C05, N-[(5-methyl-2-phenyl-1,3-oxazol-4-yl)methyl]prop-2-enamide] | 106.734

From article PMC11995724, “Antibiotic target discovery by integrated phenotypic and activity-based profiling of electrophilic fragments” (Cell chemical biology, 2025)
